Data taken from PubChem BioAssay AID504832 (National Center for Advancing Translational Sciences (NCATS), 2011).
Several values for one entry are separate records, joined by “and”; a condition that tells them apart may be missing. Identical values can stand only once. The whole screen tested about 310,000 compounds, of which about 18,000 (5.8%) were called active. Inconclusive results, whose numbers are uncertain, are shown with a selection of clear calls. The call rests on the fitted dose curve; in most records, active means well fitted inhibition curve with a large enough effect; inconclusive means small, poorly fitted or top-dose-only effect, or another doubt; inactive means no such curve, though single readings can be large or run the other way. Potencies beside an inconclusive call are fits to weak or partial responses and may not hold up.

Test: Primary qHTS for delayed death inhibitors of the malarial parasite plastid, 48 hour incubation
Details: P. falciparum luciferase growth in erythrocytes; series mostly up to 28.7 µM
Procedure, shortened: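 Compounds are pin-transferred into medium, infected erythrocytes (2% hematocrit, 0.1% parasitemia final) are added, and plates sit one parasite generation at 37 C in 5% CO2. Detection reagent is then added and luminescence measured.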
Potency means the concentration at half of the fitted maximal effect; tags describe the fitted curve by direction and shape.

Row | SMILES | Potency
1 | COCCN1CCn2c(nc3cc([N+](=O)[O-])ccc32)C1 | inactive
2 | O=C(Nc1ccccc1N1CCCC1)c1cc(S(=O)(=O)N2CCOCC2)ccc1Cl | inactive
3 | Cc1ccc(-n2cc(CN(C)CCc3cn[nH]c3)c(-c3cccc(C)c3)n2)cc1 | inconclusive: 18.5 µM [inhibitor, single point]
4 | Cc1cc(=O)[nH]c(N=N/C(=N/Nc2ccc(O)cc2)c2ccccc2)n1 | inconclusive: 16.5 µM [inhibitor, single point]
5 | COc1cc(C(=O)NCCC2=CCCCC2)ccc1OCc1c(C)noc1C | inconclusive: 10.4 µM [inhibitor, single point]
6 | Cc1ccc(S(C)(=O)=O)cc1C(=O)OCC(=O)N(Cc1ccccc1)Cc1ccccc1 | inconclusive: 11.7 µM [inhibitor, single point]
7 | c1ccc(-c2cc(N3CCOCC3)nc(-c3ccccc3)n2)cc1 | inactive
8 | Cc1ccc(NC(=O)CCc2ccc(S(=O)(=O)NC3CCCCC3)cc2)cc1 | inconclusive: 11.7 µM [inhibitor, partial curve, poor fit]
9 | CCCCCCC[C@H](N)[C@H](O)C(=O)N(C)[C@@H](CCS(C)=O)C(=O)N[C@@H](Cc1ccc(O)cc1)C(=O)N[C@@H](Cc1ccc(O)cc1)C(=O)O (stereo not given in full) | inconclusive: 18.5 µM [inhibitor, single point]
10 | CCOC(=O)c1cc2c(=O)n3ccccc3nc2n(Cc2ccco2)c1=NC(=O)c1ccccc1OC | inconclusive: 10.4 µM [inhibitor, partial curve]
11 | COc1cc(NC(=O)c2oc3ccccc3c2C)ccc1NC(=O)c1ccco1 | inactive
12 | CCC(=O)NC(c1cccc([N+](=O)[O-])c1)c1c(O)ccc2ccccc12 (stereo not given) | inconclusive: 7.38 µM [inhibitor, partial curve, poor fit]
13 | COc1cc(CC(NC(C)=O)C(=O)NC2CCN(c3c(Cc4ccccc4)c(C)nc4ncnn34)CC2)cc(OC)c1 (stereo not given) | inconclusive: 5.86 µM [inhibitor, partial curve]
14 | C=CCn1c(=O)c(C(=O)NCc2ccc3c(c2)OCO3)c(O)c2ccccc21 | inconclusive: 10.4 µM [inhibitor, single point]
15 | CCOC(=O)c1sc(N(Cc2ccccc2)C(=O)COC(=O)c2ccc(O)cc2)nc1C | inconclusive: 18.5 µM [inhibitor, single point]
16 | Cc1ccccc1N1Cc2ccccc2C1 | inconclusive: 14.7 µM [inhibitor, single point]
17 | COc1ccc(CCN(Cc2nc3ccccc3c(=O)[nH]2)C(=O)c2ccco2)cc1OC | inconclusive: 20.8 µM [inhibitor, partial curve, poor fit]
18 | Cc1ccc(Nc2nnc(SC(C)C(=O)NCC3CCCO3)s2)cc1C (stereo not given) | inconclusive: 11.7 µM [inhibitor, single point]
19 | CCc1nc2ccccc2c(C(=O)O)c1C | inactive
20 | COc1ccc(-c2nc3ccc(C)cn3c2NCc2ccc3c(c2)OCO3)cc1 | inactive
21 | O=C(NNC(=O)c1csc(-c2cccnc2)n1)c1ccccc1 | inconclusive: 11.7 µM [inhibitor, single point]
22 | COc1ccc(N=Nc2[nH]c3ccc(C)cc3c2O)cc1 | inactive

Row | SMILES | Potency
23 | O=C1C(Oc2ccccc2)C(c2ccc3c(c2)OCO3)N1CCc1ccc(F)cc1 (stereo not given) | inconclusive: 10.4 µM [inhibitor, single point]
24 | O=C(NCc1cccnc1)C12CC3CC(CC(C3)C1)C2 | inactive
25 | COc1ccc(Cc2nc3ccc(C(=O)N4CCCC4)cc3o2)cc1OC | inconclusive: 18.5 µM [inhibitor, partial curve, poor fit]
26 | O=S1(=O)N=C(Nc2ccc(O)c(CN3CCCCC3)c2)c2ccccc21 | active: 1.47 µM
27 | CN(C)CCCNc1nc(-c2ccccc2)nc2ccccc12 | inconclusive: 18.5 µM [inhibitor, single point]
28 | O=C(Nc1ccccc1)Nc1ccc(Cl)c([N+](=O)[O-])c1 | inconclusive: 18.5 µM [inhibitor, single point]
29 | Cc1noc(C)c1CSCC(=O)N(CCC(C)C)c1c(N)n(Cc2ccccc2)c(=O)[nH]c1=O | inconclusive: 0.0586 µM [inhibitor, full curve, poor fit]
30 | CC(/C=N\Nc1nnc2c(n1)[nH]c1c(C)cccc12)=C\c1ccco1 | inconclusive: 3.7 µM [inhibitor, partial curve, poor fit]
31 | COc1cc(OC)c(NC(=S)Nc2cc(Cl)cc(Cl)c2)cc1Cl | inconclusive: 16.5 µM [inhibitor, partial curve, poor fit]
32 | CCCSc1ccc([C@H]2N[C@@](CC(C)C)(C(=O)OC)[C@H]3C(=O)N(C)C(=O)[C@@H]23)cc1 | inconclusive: 18.5 µM [inhibitor, single point]
33 | COc1cc(C(=S)N2CCN(C(c3ccccc3)c3ccccc3)CC2)cc(OC)c1O | inconclusive: 6.57 µM [inhibitor, partial curve]
34 | COc1ccc2[nH]cc(CCNC(=O)c3ccco3)c2c1 | inactive
35 | CCCCOCCCNC(=S)Nc1ccc(S(=O)(=O)N2CCOCC2)cc1 | inconclusive: 4.15 µM [inhibitor, partial curve]
36 | CCOc1ccc(NC(=S)N2CCCN(Cc3cccc(Cl)c3)C2)cc1 | inconclusive: 10.4 µM [inhibitor, partial curve, poor fit]
37 | CCOCCCNCc1ccc(OCCC(C)C)c(OC)c1 | inactive
38 | Cc1ccc(NC(=O)CSc2nsc(SCC(=O)Nc3ccc(C)cc3C)c2C#N)c(C)c1 | inactive
39 | COc1ccc(OC)c(NC(=O)c2ccc(-c3csc(C)n3)cc2)c1 | inconclusive: 18.5 µM [inhibitor, single point]
40 | Cc1nc2ccccc2n1S(=O)(=O)c1ccc(F)cc1 | inconclusive: 1.85 µM [inhibitor, single point]
41 | CC(=O)Nc1ccc(C(=O)CN2C(=O)NC3(CCOc4ccccc43)C2=O)c(F)c1 (stereo not given) | inconclusive: 18.5 µM [inhibitor, single point]
42 | CCOc1ccc(NC(=O)CN(C)C(=O)c2cccnc2SC)cc1OCC | inactive
43 | O=[N+]([O-])c1cc(C2Nc3cccc4cccc(c34)N2)ccc1Cl | active: 2.94 µM
44 | COc1ccc(C(CNC(=O)c2cccc(S(=O)(=O)Nc3ccccc3Cl)c2)N2CCOCC2)cc1 (stereo not given) | inconclusive: 18.5 µM [inhibitor, single point]

Row | SMILES | Potency
45 | Cc1ccccc1-c1nc(CS(=O)(=O)CC(=O)NCCN2CCCC2)c(C)o1 | inconclusive: 18.5 µM [inhibitor, single point]
46 | CCS(=O)(=O)c1ccc(O)c(NC(=O)/C=C/c2ccc(Cl)cc2)c1 | inconclusive: 14.7 µM [inhibitor, partial curve]
47 | CCOc1ccc(OCC)c(NC(=O)C2CCCN(S(=O)(=O)c3c(C)noc3C)C2)c1 (stereo not given) | inconclusive: 0.522 µM [inhibitor, partial curve, poor fit]
48 | COc1cc(O)c(C(=O)/C=C/c2ccccc2)c(OC)c1 | inconclusive: 18.5 µM [inhibitor, single point]
49 | Cc1ccc(N(Cc2ccco2)C(=O)c2ccc(N3CCCCC3)c([N+](=O)[O-])c2)cc1 | inactive
50 | CC(C)N(CCO)C(=O)CCc1nnc(CCCc2ccccc2)o1 | inactive
51 | CCOC(=O)c1sc2nc3c(SCC(=O)O)cc(C(=O)c4cc(F)ccc4O)cn3c(=O)c2c1C | inactive
52 | CCOC(=O)C(=NCCCN1CCOCC1)NNc1cccc(C(F)(F)F)c1 | inactive
53 | COc1cccc(C(=O)NCC(c2cccs2)N2CCOCC2)c1 (stereo not given) | inconclusive: 18.5 µM [inhibitor, single point]
54 | CSCCC(NC(=O)c1ccco1)C(=O)Nc1cc(C)ccn1 (stereo not given) | inactive
55 | O=C(NC1CCN(Cc2ccccc2)CC1)C1CCN(S(=O)(=O)c2cccc3cccnc23)CC1 | inconclusive: 18.5 µM [inhibitor, single point]
56 | COCCCNc1oc(/C=C/c2ccccc2)nc1C#N | inactive
57 | CCCc1nn(C)c2c(=O)[nH]c(-c3cc(S(=O)(=O)N4CCN(C)CC4)ccc3OCC)nc12 | inconclusive: 16.9 µM [inhibitor, single point] and inconclusive: 10.4 µM [inhibitor, single point]
58 | Cc1cccn2c(=O)c3cc(C(=O)NC4CCCCCC4)sc3nc12 | inconclusive: 13.1 µM [inhibitor, single point]
59 | CC1CCCN(c2sc(S(C)(=O)=O)nc2S(=O)(=O)c2ccc(Cl)cc2)C1 (stereo not given) | inconclusive: 9.28 µM [inhibitor, partial curve]
60 | C#CC[N+]1(CC#Cc2ccccc2)CCCCC1 | inconclusive: 10.4 µM [inhibitor, single point]
61 | C=CCn1c2c(c(=O)[nH]c1=S)CN(C(C)c1ccccc1)CN2 (stereo not given) | inconclusive: 16.5 µM [inhibitor, partial curve, poor fit]
62 | COc1ccc(OC)c(CCNC(=O)CS(=O)(=O)Cc2nc(-c3ccccc3Cl)oc2C)c1 | inactive
63 | Cc1ccc(C(=O)C2(C)C3c4cc(Br)ccc4OC(=O)C32C(=O)c2ccco2)cc1 (stereo not given) | inconclusive: 3.7 µM [inhibitor, partial curve, poor fit]
64 | O=C(CSc1nc(O)c(C2CCCCC2)c(=O)[nH]1)NCC1CCCO1 (stereo not given) | inconclusive: 4.15 µM [inhibitor, single point]
65 | O=C(Nc1ccccc1N1CCOCC1)C1CCN(S(=O)(=O)c2ccccc2F)CC1 | inconclusive: 1.47 µM [inhibitor, full curve]
